# Data as given in PubChem BioAssay AID588689 (Southern Research Specialized Biocontainment Screening …, 2011).
# Screen size: about 340,000 compounds; about 1,000 (0.29%) were called active. This list was built around the results that the source calls inconclusive (neither active nor inactive); the mix of calls is not that of the screen. Cut-off read from the data, not from the text of the source: inconclusive = inhibition above about 29% without an active follow-up result; inactive = below that.
# Biological target: Genome polyprotein (Dengue virus type 2 (strain 16681-PDK53)) (UniProt P29991)
# Test: Dengue-2 NS5 methyltransferase inhibitors, primary screen, biochemical, confirmation dose response (AID 588689)
# Conditions: Dengue-2 NS5 methyltransferase capping enzyme assay, at 25 µM, active compounds read high
row,SMILES,inhibition
1,Cc1ccccc1N1C(=O)c2cccc3c(N(C)CCO)ccc(c23)C1=O,inconclusive: 139%
2,N#C/C(=C/c1ccc(N2CCCCC2)o1)C(=O)Nc1ccc2ccccc2c1,inconclusive: 178%
3,Cc1c(Br)c(O)c(Br)c(O)c1/C=N/n1c(-c2ccccc2)n[nH]c1=S,inactive: 21.5%
4,Cc1[nH]n(-c2ccccc2)c(=O)c1Sc1ccc(Cl)cc1,inactive: 13.9%
5,COc1ccc(S(=O)(=O)Nc2ccccc2OC)cc1N=Nc1c(O)[nH]c(=S)[nH]c1=O,inconclusive: 68.2%
6,Nc1ccc2c3c(cccc13)CC2,inconclusive: 172%
7,O=C(O)c1ccccc1C(=O)c1ccc(Cl)cc1,inactive: 1.15%
8,Cc1cccc(N2CCN(C(=O)CCS(=O)(=O)c3ccc4c(c3)NC(=O)C(C)S4)CC2)c1C (stereo not drawn),inconclusive: 34.4%
9,O=C(N/N=C/c1ccc(O)c(O)c1O)/C(=C/c1ccc([N+](=O)[O-])cc1)NC(=O)c1ccccc1,inconclusive: 101%
10,Cc1cc(C(C)(C)C)oc1C(=O)N(CC(=O)NC1CCCC1)c1cccc(C(F)(F)F)c1,inactive: -5.56%
11,COC(=O)C1=COC(C)C2CN3CCc4c([nH]c5ccccc45)C3CC12 (stereo not drawn),inconclusive: 58.8%
12,COc1ccc(C2=CC(c3sccc3C)n3nnnc3N2)cc1 (stereo not drawn),inconclusive: 73.5%
13,COC(=O)c1ccccc1-c1c2ccc(=N)cc-2oc2cc(N)ccc12,inconclusive: 152%
14,CCOC(=O)c1c(-c2ccccc2)csc1NC(=O)/C(C#N)=C\c1ccc(O)c(OC)c1,inconclusive: 42.9%
15,CCN1CCN(Cc2c(O)ccc3c2O/C(=C\c2ccccc2)C3=O)CC1,inconclusive: 48.9%
16,COc1ccc(C(=O)NC2CCCCCCC2)cc1OC,inactive: -1.55%
17,COCCn1c(=N)c(S(=O)(=O)c2ccc(F)cc2)cc2c(=O)n3ccccc3nc21,inconclusive: 40.8%
18,Cc1nn(-c2ccccc2)c(N2CCCC2)c1/C=C1\N=C(c2ccccc2)OC1=O,inconclusive: 41%
19,CCCCNC(=S)Nc1ccc(OC)nc1,inconclusive: 32.2%
20,COC(=O)c1ccc2c(c1)C(C)(C)C(/C=C/c1ccc(O)cc1)=[N+]2C,inconclusive: 34.5%
21,COc1ccc(C2=NN(C(=O)c3ccc(Cl)c([N+](=O)[O-])c3)C(c3ccccc3)C2)cc1 (stereo not drawn),inactive: -4.55%
22,Cc1ccsc1C1C=C(c2cccc(Br)c2)Nc2ncnn21 (stereo not drawn),inconclusive: 36.4%

row,SMILES,inhibition
1,CCN(CC)c1ccc2cc(-c3nc(-c4cc5ccccc5oc4=O)cs3)c(=O)oc2c1,inconclusive: 200%
2,CCN(CC)C(=O)CSc1nnc2nnc3cc(C)ccc3n12,inconclusive: 44.1%
3,CN1C(=O)/C(=C\c2ccc(N(C)C)cc2)OC1=S,inconclusive: 39.6%
4,O=C(COc1ccccc1[N+](=O)[O-])Nc1cc(Cl)ccc1C(=O)O,inactive: 0%
5,Oc1[nH]c2ccccc2c1N=Nc1ccccc1Cl,inconclusive: 36.4%
6,Cc1ccc(-c2nnn(CC(=O)N(Cc3ccccc3)C(C(=O)NC(C)(C)C)c3ccncc3)n2)o1 (stereo not drawn),inactive: -0.68%
7,O=C(O)COc1ccc2nsnc2c1Cl,inactive: -9.55%
8,CC(C1CC1)N(Cc1ccccc1)C(=O)NC(=O)c1cccc(F)c1 (stereo not drawn),inactive: -0.76%
9,CC1=NN(c2cccc(C(=O)O)c2)C(=O)/C1=C\C=C\c1ccco1,inactive: 19.1%
10,Cc1cc(C(=O)N/N=C2/CC(C)CC(C)(C)C2)c(C)o1 (stereo not drawn),inactive: -5.92%
11,CCC1OC23CCCCC2C(C#N)(C(=N)O3)C1(C#N)C#N (stereo not drawn),inconclusive: 89.8%
12,CCCN1C(=O)c2cccc3c(N4CCCCC4)ccc(c23)C1=O,inconclusive: 52.6%
13,CC(C)CC(=O)Nc1ccc(C(=O)COC(=O)C2CCC2)cc1,inactive: -0.65%
14,CC1(OC(=O)C2CCCC2)C(=O)C=C2C=C(c3ccc(C#N)cc3)OC=C2C1=O (stereo not drawn),inconclusive: 32.8%
15,COc1ccc(N/C=C2\C(=O)CCc3c2oc2cc(Cl)c(O)c(Cl)c32)cc1,inconclusive: 71.9%
16,COc1ccc(C2C(C(C)=O)=C(C)N=c3s/c(=C\c4cc(C)n(C)c4C)c(=O)n32)c(OC)c1 (stereo not drawn),inconclusive: 172%
17,Cc1nc(Cl)c2c(n1)NC1=C(O2)C(=O)CCC1,inconclusive: 150%
18,Cc1ccc2[nH]c(C)c(/C=C/c3cc[n+](C)cc3)c2c1,inconclusive: 171%
19,CCOCCCn1c(=NC(=O)c2cccs2)c(C#N)cc2c(=O)n3cccc(C)c3nc21,inconclusive: 74.5%
20,C=C(C)COc1ccc(-c2nc(N)nc(C)c2-c2ccc(OC)cc2)c(O)c1,inconclusive: 152%
21,ON(CCc1ccccn1)CCc1ccccn1,inconclusive: 38.2%
22,Cc1cccc(Nc2nnc(SCC(=O)NC3CCCc4ccccc43)s2)c1C (stereo not drawn),inactive: -1.45%

row,SMILES,inhibition
1,O=C(O)c1cccc(N/N=C(\N=Nc2ccccc2)c2ccccc2)c1,inactive: 12.7%
2,CCOC(=O)c1ccc(N=Nc2c(C)c(C#N)c(O)[nH]c2=O)cc1,inconclusive: 57.1%
3,CC(=O)Nc1ccc(/C(N=Nc2ccccc2)=N/N=C(N)N)cc1,inactive: 7.72%
4,COc1cc(/C=C(\C#N)C(=O)c2c[nH]c3ccccc23)cc(OC)c1O,inconclusive: 147%
5,CC(=O)Nc1ccc(S(=O)(=O)NC2CC(=O)N(c3ccc(C)c(C)c3)C2)cc1 (stereo not drawn),inactive: -8.06%
6,Cc1ccc(OCC(=O)OCC(=O)Nc2ccc3c(c2)OCO3)cc1C,inactive: -3.82%
7,Cc1c(C(c2cccc(O)c2)c2c(C)n(C)n(-c3ccccc3)c2=O)c(=O)n(-c2ccccc2)n1C,inactive: 0.66%
8,Cc1sc(N2C(=O)C3C4C=CC(C4)C3C2=O)c(C#N)c1C (stereo not drawn),inactive: -2.18%
9,Cc1ccc(S(=O)(=O)CC(=O)c2cc3cccc(C)c3oc2=O)cc1,inactive: 5.44%
10,O=C(Oc1ccc(NC2=C(Cl)C(=O)c3ccccc3C2=O)cc1)c1ccc([N+](=O)[O-])cc1,inactive: 11.5%
11,CN(C)CCCn1c2c3ccccc3ccc2c2oc(=O)c3ccccc3c21,inconclusive: 41.1%
12,O=C(O)C1Nc2c(C(=O)N3CCOCC3)cccc2C2C=CCC12 (stereo not drawn),inconclusive: 70.8%
13,CN(C)c1ccc(/C=C/C(=O)c2ccc3c(c2)OCO3)cc1,inconclusive: 152%
14,CCC(C)n1c(=N)c(C#N)cc2c(=O)n3ccccc3nc21 (stereo not drawn),inconclusive: 73.2%
15,O=c1oc2cc(O)ccc2cc1-c1nc2c(s1)CCc1ccccc1-2,inconclusive: 152%
16,Cc1cc(C)c(C)c(S(=O)(=O)NCCN2CCOCC2)c1C,inactive: 6.21%
17,CCOC(=O)C1Nc2ccccc2C2c3ccccc3CC12 (stereo not drawn),inconclusive: 28.8%
18,COc1cc(/C=C2/C(=O)ON=C2C)ccc1OCc1ccccc1F,inconclusive: 29.7%
19,CC(=O)Nc1ccc(-c2nc3cc(Cl)ccc3o2)cc1,inactive: 0%
20,Cc1c(N=C/C=C2\N(C)c3ccccc3C2(C)C)c(=O)n(-c2ccccc2)n1C,inactive: -3.46%
21,Cc1cc2nc3ccc(N(C)C)cc3nc2cc1N,inconclusive: 117%
22,Nc1ccc2nc(-c3ccccc3)cnc2c1,inconclusive: 48.9%

row,SMILES,inhibition
1,CCN(CC)c1ccc2cc(C=O)c(=O)oc2c1,inconclusive: 166%
2,CCCCCn1nc(-c2ccccc2)c2nc3ccccc3nc21,inconclusive: 170%
3,COc1ccc2c(c1)c(C(O)CN1CCN(Cc3ccc4c(c3)OCO4)CC1)c(C)n2C (stereo not drawn),inconclusive: 35.5%
4,CC(C)(C)C(=O)c1sc2nc(-c3cccs3)cc(C(F)(F)F)c2c1N,inconclusive: 88%
5,O=C(N/N=C/c1ccc(-c2ccc([N+](=O)[O-])cc2)o1)[C@H]1C[C@@H]1c1ccccc1,inconclusive: 46%
6,O=C1NC(=S)N/C1=C/c1cc2c(cc1[N+](=O)[O-])OCO2,inactive: 6.53%
7,CCN1/C(=C/C(C)=C/c2sc3ccccc3[n+]2CC)Sc2ccccc21,inconclusive: 88.1%
8,C=CCn1c(C)cc(-c2csc(NCC)n2)c1C,inconclusive: 55.9%
9,COc1ccc(-c2nc(CS(=O)CC(=O)NCc3ccc(F)cc3)c(C)o2)cc1 (stereo not drawn),inactive: -10.5%
10,O=c1cc(-c2ccccc2)oc2cccc(O)c12,inactive: -5.07%
11,CNS(=O)(=O)c1cccc(C(=O)OCC(=O)Nc2ccc(OC)cc2[N+](=O)[O-])c1,inactive: 6.24%
12,COc1ccc(C2c3ccc(O)cc3Oc3ncn(Cc4ccccc4)c(=N)c32)cc1OC (stereo not drawn),inconclusive: 43.5%
13,O=[N+]([O-])c1ccccc1S(=O)(=O)Nc1ccc(S(=O)(=O)Nc2nccs2)cc1,inactive: 3.56%
14,CCOCCn1c(CN2CCN(C(c3ccccc3)c3ccccc3)CC2)nc2c1c(=O)n(C)c(=O)n2C,inactive: -5.88%
15,CCCCC1OC23CCCCC2C(C#N)(C(=N)O3)C1(C#N)C#N (stereo not drawn),inconclusive: 72.2%
16,O=[N+]([O-])c1cc(C(F)(F)F)ccc1-n1nnc2ccccc21,inactive: 1.31%
17,NC(=O)c1c(NC(=O)c2ccccc2)sc2c1CCN(Cc1ccccc1)C2,inconclusive: 134%
18,C#CCN1C(=O)S/C(=C\c2ccc(N3CCOCC3)cc2C)C1=O,inconclusive: 90.7%
19,O=c1cc(-c2ccccc2)nc(SCc2ccccc2F)[nH]1,inactive: -2.34%
20,Clc1ccc(OCCn2cnc(Cl)c2Cl)cc1,inactive: 2.87%
21,Cc1ccccc1OCC(=O)Nc1ccc2c(c1)C(=O)c1ccccc1C2=O,inconclusive: 40.1%
22,Cc1ccc(/C=C2\CCC3=C2OC(N)=C(C#N)C3c2ccc(C)cc2)cc1 (stereo not drawn),inconclusive: 162%
